In PubChem BioAssay AID588342 (National Center for Advancing Translational Sciences (NCATS), 2011):
Hit rate of the full screen: of about 360,000 compounds, about 25,000 (6.9%) were called active. The shares of active, inactive and inconclusive entries below differ from those in the screen. The call rests on the fitted dose curve; in most records, active means well fitted inhibition curve with a large enough effect; inconclusive means small, poorly fitted or top-dose-only effect; inactive means flat fitted curve, though single readings scatter. Potencies of inconclusive entries are doubtful fits and often do not repeat.

Target: Luciferin 4-monooxygenase (Photinus pyralis) (UniProt P08659)
Sequence of UniProt P08659 (P08659 whole entry, looked up): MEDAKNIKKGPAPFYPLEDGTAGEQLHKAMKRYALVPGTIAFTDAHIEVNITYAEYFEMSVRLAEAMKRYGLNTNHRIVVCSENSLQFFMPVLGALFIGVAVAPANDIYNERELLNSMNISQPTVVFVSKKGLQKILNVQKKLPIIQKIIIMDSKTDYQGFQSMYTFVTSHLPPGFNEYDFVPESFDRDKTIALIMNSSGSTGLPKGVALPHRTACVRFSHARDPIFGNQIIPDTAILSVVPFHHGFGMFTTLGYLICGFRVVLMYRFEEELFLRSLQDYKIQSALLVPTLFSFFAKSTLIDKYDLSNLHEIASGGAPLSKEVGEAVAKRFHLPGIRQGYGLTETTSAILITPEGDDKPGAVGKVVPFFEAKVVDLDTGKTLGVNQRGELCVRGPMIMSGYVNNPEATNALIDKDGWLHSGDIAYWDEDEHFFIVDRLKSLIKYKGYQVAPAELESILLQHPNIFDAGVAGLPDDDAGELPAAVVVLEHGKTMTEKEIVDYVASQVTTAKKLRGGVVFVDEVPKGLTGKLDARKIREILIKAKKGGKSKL
Assay: qHTS profiling assay for firefly luciferase inhibitor/activator using purifed enzyme and Km concentrations of substrates (counterscreen for miR-21 project); further: nearly all actives have a fitted effect of over 55% in size
Details: purified FLuc, luminescence inhibition; series mostly up to 57.5 µM
How it was run: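 Purified P. pyralis luciferase (10nM final) with 10uM D-luciferin and 10uM ATP (Km levels) in 50mM Tris acetate pH 7.5, 10mM Mg acetate, 0.01% Tween-20, 0.05% BSA; qHTS 6-point titration, ~60 µM downward; luminescence read.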
Potency means the concentration at half of the fitted maximal effect; tags describe the fitted curve by direction and shape.

SMILES | Potency
CCCc1cc(=O)n2[nH]c(NCc3c(F)cccc3Cl)nc2n1 | inconclusive: 26.9 µM [inhibitor, partial curve, poor fit]
O=C(CSc1nc2ccccc2s1)N1CCOCC1 | inconclusive: 19 µM [inhibitor, partial curve, poor fit]
N#C/C(=N\Nc1ccc([N+](=O)[O-])cc1)C(=N)N1CCOCC1 | inconclusive: 26.9 µM [inhibitor, single point]
O=C(NNc1c2ccccc2nc2ccccc12)c1ccccc1O | inconclusive: 9.53 µM [inhibitor, partial curve]
CC1CCN(c2nc3ccc(C(=O)N4CCN(Cc5ccc6c(c5)OCO6)CC4)cc3s2)CC1 | inconclusive: 37.9 µM [inhibitor, single point]
O=C1CN(S(=O)(=O)c2cccc(Cl)c2Cl)c2ccccc2N1 | inactive
COc1ccccc1OCCCOc1cccc(/C=C2\SC(=O)NC2=O)c1 | inconclusive: 37.9 µM [inhibitor, partial curve, poor fit]
Cc1ccc(C(=O)n2nc(C)c(S(=O)(=O)N3CCCCCC3)c2C)cc1 | inconclusive: 30.1 µM [inhibitor, partial curve, poor fit]
O=[N+]([O-])c1cc(Br)c(O)c(/C=N/Nc2nc3ccccc3s2)c1 | active: 19 µM
Cc1cccc(-c2noc(-c3ccc(N4CCN(C)CC4)c([N+](=O)[O-])c3)n2)c1 | inconclusive: 30.1 µM [inhibitor, single point]
COc1ccc(-c2noc(-c3ccccc3-c3ccccc3)n2)cc1 | inconclusive: 37.9 µM [inhibitor, partial curve, poor fit]
O=C(Nc1nccs1)c1ccc(Cl)c(S(=O)(=O)N2CCCCC2)c1 | inconclusive: 26.9 µM [inhibitor, single point]
Cc1ccnc(NC(=O)c2sc3ccccc3c2Cl)c1 | active: 0.12 µM
O=C(c1ccc2c3n(nc2c1)-c1ccc(Cl)cc1CO3)N1CCCCC1 | active: 5.36 µM
Cc1ccc(NC(=S)/C(=C(\[O-])c2ccc(Cl)s2)[n+]2cccc(CO)c2)cc1C | inconclusive: 30.1 µM [inhibitor, single point]
Cc1ccc(-c2nn3c(C)nnc3s2)cc1NC(=O)c1ccc(-c2ccc(Cl)cc2Cl)o1 | inconclusive: 5.36 µM [inhibitor, partial curve]
Cc1cc(C(=O)Oc2cccnc2)ccc1[N+](=O)[O-] | inconclusive: 26.9 µM [inhibitor, single point]
O=C(CSc1nnc2[nH]c(=O)cc(-c3ccccc3)n12)Nc1ccc(F)cc1F | active: 1.9 µM
COc1ccc(-c2cc3c(=O)n(CC(=O)Nc4ccc(Cl)cc4)ncn3n2)cc1 | inconclusive: 37.9 µM [inhibitor, partial curve, poor fit]
CCCn1c(-c2cccc(Br)c2)nc2ccccc21 | inconclusive: 23.9 µM [inhibitor, partial curve]
CCC(C)(C)NC(=O)C(c1ccc(OC)cc1)N(C(=O)CCC(=O)Nc1cc(C)on1)c1ccc2c(c1)OCCO2 (configuration not stated) | inconclusive: 37.9 µM [inhibitor, partial curve, poor fit]
Nc1nonc1C(=O)N/N=C/c1ccc(-c2cccc([N+](=O)[O-])c2)o1 | inconclusive: 21.3 µM [inhibitor, partial curve, poor fit]
Cc1nc(SCc2cccc(C(=O)O)c2)nc2c1CCCC2 | active: 8.49 µM
COc1ccc(-c2coc3cc(OC)cc(OC)c3c2=O)cc1 | active: 15.1 µM

SMILES | Potency
CCCCCc1ccc(C(=O)CCC(=O)OCC(=O)N(CC)c2c(N)n(Cc3ccccc3)c(=O)[nH]c2=O)cc1 | inconclusive: 4.26 µM [inhibitor, partial curve, poor fit]
O=C1CC(c2ccc3c(c2)OCCO3)Oc2ccccc21 (configuration not stated) | active: 21.3 µM
O=C(Nc1ccc(F)cc1F)N1CCCC(c2nc(-c3ccc(F)cc3)no2)C1 (configuration not stated) | inconclusive: 37.9 µM [inhibitor, partial curve, poor fit]
CCCSc1nsc(NC(=O)CCC)n1 | active: 12 µM
COc1nc(-c2ccc(C)cc2)ccc1-c1noc(-c2ccco2)n1 | active: 19 µM
O=C(N/N=C/c1cc(Br)c(Br)o1)c1cccnc1 | inactive
COc1ccc(/C=C2\SC(=O)N(CCC(=O)N(C)C3CCS(=O)(=O)C3)C2=O)cc1 (configuration not stated) | active: 10.7 µM
O=c1c2ccccc2sn1-c1ccc(F)cc1 | inconclusive: 17.8 µM [inhibitor, partial curve, poor fit]
CCn1c(=O)c2cc(C(=O)N3CCN(C)CC3)sc2c2ccccc21 | inactive
Cc1cc(NC(=O)c2ccc(Cl)cc2)ccc1NC(=O)c1ccccc1Cl | active: 12 µM
CC(C)(C)NC(=O)C(c1ccccn1)N(C(=O)C1CSC(=O)C1)c1ccccc1F (configuration not stated) | inactive
Cc1cc(N=Cc2c(O)n(-c3cccc(C(F)(F)F)c3)c(=O)c3ccccc23)no1 | inactive
Cc1ccccc1OCC(=O)Nc1ccc2[nH]ncc2c1 | inconclusive: 15.1 µM [inhibitor, partial curve]
Cc1nc2cc(NC(=O)COc3ccccc3C#N)ccc2n1-c1ccccc1 | inconclusive: 37.9 µM [inhibitor, single point]
COc1ccc(C(=O)c2c3ccccc3[n+]([O-])n2CCCN)cc1 | inconclusive: 16.9 µM [inhibitor, partial curve]
Cc1cc(NC(=O)c2ccccc2F)ncc1NC(=O)c1cccs1 | inconclusive: 23.9 µM [inhibitor, partial curve]
CC(=O)c1cccc(NC(=O)c2ccc(-n3c(C)nnc3C)cc2)c1 | inactive
Oc1ccccc1CNc1ccc(Br)cn1 | active: 9.53 µM
CSc1ncccc1C(=O)OCc1ccccc1Cl | inconclusive: 23.9 µM [inhibitor, partial curve]
CC(c1ccccc1)c1nnc(NC(=O)Nc2ccccc2)s1 (configuration not stated) | inconclusive: 23.9 µM [inhibitor, partial curve, poor fit]
c1ccc(Cn2ccc(-c3cnc(-c4ccccc4)s3)n2)cc1 | active: 1.9 µM
O=C(N/N=C/c1cc(Br)ccc1O)Nc1ccccc1 | inconclusive: 15.1 µM [inhibitor, partial curve]
O=C(Nc1ccc(F)c(S(=O)(=O)N2CCOCC2)c1)C1CCCCC1 | inactive
Cc1oc(C(C)(C)C)cc1C(N)=O | inactive

SMILES | Potency
CCOc1ccc(NC(=O)CCS(=O)(=O)c2cccc3nonc23)cc1 | inactive
Cc1ccc(-n2ncc3c(N4CCN(C)CC4)ncnc32)cc1Cl | active: 5.36 µM
CNC(=O)c1c[nH]c2ccc(S(=O)(=O)Nc3cccc(Cl)c3C)cc2c1=O | inconclusive: 10.7 µM [inhibitor, partial curve, poor fit]
Cc1cc(C)cc(OCc2ccc(C(=O)Nc3ccccc3F)o2)c1 | inactive
O=C(CSc1nc2ccsc2c(=O)n1CC1CCC(C(=O)O)CC1)c1ccc(F)cc1 (configuration not stated) | inconclusive: 15.1 µM [inhibitor, partial curve, poor fit]
COc1ccc(NC(=O)CSc2ccc(-c3ccccn3)nn2)cc1OC | inconclusive: 16.9 µM [inhibitor, partial curve, poor fit]
CCN(CC)c1ccc(/C=N/NC(=O)OC(C)(C)C)cc1 | active: 10.7 µM
COc1cc(NC(=O)Cc2c(C(=O)O)c(C)cn2C)cc(OC)c1 | inconclusive: 26.9 µM [inhibitor, partial curve, poor fit]
O=C(O)C/C(=C\c1ccc2c(c1)OCO2)c1nc2ccccc2s1 | inconclusive: 37.9 µM [inhibitor, single point]
N#CCCCSc1nnc(CSc2nc3ccccc3s2)n1-c1ccccc1 | inactive
Cc1cc(=O)[nH]c(SCC(=O)c2c(N)n(C)c(=O)n(C)c2=O)n1 | inactive
CC(C)Cn1c(NCCO)nc2ccccc21 | inactive
CCc1sc(C(=O)N2CCc3cc(OC)c(OC)cc3C2CC(=O)O)cc1C (configuration not stated) | inconclusive: 23.9 µM [inhibitor, partial curve, poor fit]
Cc1ccc(OCC(=O)NCc2cccs2)cc1 | inconclusive: 19 µM [inhibitor, partial curve, poor fit]
CN(C)CCNC(=O)C(=O)NCC1OCCN1S(=O)(=O)c1ccc([N+](=O)[O-])cc1 (configuration not stated) | inactive
Fc1ccc2ncc3c(-c4ccccc4)n[nH]c3c2c1 | inactive
CCn1c(SCC(=O)N2CCN(c3ccc(F)cc3)CC2)nnc1-c1ccncc1 | inconclusive: 26.9 µM [inhibitor, partial curve, poor fit]
Cc1ccccc1C(=O)NN1CCOCC1 | inactive
CCn1c(SCC(=O)Nc2ccc(-c3nc4ccc(C)cc4s3)cc2)nnc1-c1ccccc1 | inconclusive: 15.1 µM [inhibitor, partial curve]
COc1ccc(-n2c(SCC(=O)O)nc3sc4c(c3c2=O)CCC4)cc1 | inconclusive: 19 µM [inhibitor, partial curve, poor fit]
Nc1ccc(-c2nnc(-c3ccc(-c4ccccc4)cc3)o2)cc1 | active: 2.69 µM
Cc1cccc(N(C)C(=O)CCNS(=O)(=O)c2ccc3c(c2)CCN3C(=O)C2CC2)c1 | inactive
N#Cc1ccc(CSc2nc3c(c(=O)[nH]2)CCCC3)cc1 | inactive
CCN1C(=O)/C(=C/C=C2\N(CC)c3cc(S(=O)(=O)N(C)C)ccc3N2c2ccccc2)SC1=S | inconclusive: 21.3 µM [inhibitor, partial curve, poor fit]
